Experimental data: PMC12136788
The list shows a part of the results.

T1: UNK ZnF1-3 (human, UniProt Q9C0B0 31-174)
T1 sequence: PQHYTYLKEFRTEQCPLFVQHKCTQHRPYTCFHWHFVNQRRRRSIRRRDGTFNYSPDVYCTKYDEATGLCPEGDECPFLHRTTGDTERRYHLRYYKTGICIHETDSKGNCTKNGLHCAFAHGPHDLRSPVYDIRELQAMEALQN

B1: chr5:68553883:68553884:+_ENSG00000134058_ENST00000256443|hu_hu|motif|central (ssRNA)
RNA: GGGAGUUCUACAGUCCGACGAUCUCCUUGAAGAGUCAUCAACAUGUAGGCUUUGAUGUGUGAUGGUGUCAGCACAAGACGGUUAUCCUUUAUUAUAACCUCUAGAUCAGUUUCCAUAAAAUCAAAGACAAGGCUAAUAUUAGACAACAGAGGAUUGAGCAUCA
B2: chr11:51804959:51804960:-_ENSMUSG00000020390_ENSMUST00000020657|perfect_dup|FALSE|FALSE (ssRNA)
RNA: GGGAGUUCUACAGUCCGACGAUCAUUUUGGAUAAAAACCUAACAGUUGGUGGUUUAUUUGGAUAUUCUUCAGAAAAUUCUAUUACUAGUUUAAAAGUACCAUCUUCAAAAGGUGUCCCUUCUGGUCCAAAUAUAACUGCAUUCCAACAGAGGAUUGAGCAUCA
B3: chr22:29966471:29966472:-_ENSG00000184117_ENST00000216121|hu_hu|FALSE|FALSE (ssRNA)
RNA: GGGAGUUCUACAGUCCGACGAUCGGUUUCCUUCUUGGACAGCAGGGUGGAGUGGGCAUCCUUCCGGGGAUCCACUUUGUGAACAAAGAGGGAGCGGAACCAGCUGCCUUCAUUGUCCUUGGAAUAGAAACGCGCCGCAGCUGCCAACAGAGGAUUGAGCAUCA
B4: 106916261_106916381_7059_CDS_ENSMUSG00000040481_ENSMUST00000057892|mouse|control|control (ssRNA)
RNA: GGGAGUUCUACAGUCCGACGAUCGGGUUGCUGUCCAGGAGUCACUUGGGAUGGAGUUGAUGGACGUAUUCGAGUCAGUGGUGGACUCUGGACUCGAACAGGAGACUGUCCUUGUACACUGCUCUGAGGCUGACACUGUGUUGCCAACAGAGGAUUGAGCAUCA
B5: chr5:71493517:71493518:+_ENSG00000131711_ENST00000296755|hu_hu|motif|central (ssRNA)
RNA: GGGAGUUCUACAGUCCGACGAUCUUCUUUUAUUGGUGCAAAGUCUGUGCUUUUCCCUUCCUGUUUGUCUUGGUAAAGACGGGUAGAAGUCAUUUCAGAAACUGGACUUACUUGGUCUGGAGAGCCUUGUUUUCCACUCUUUUCCAACAGAGGAUUGAGCAUCA
B6: chr3:115528449:115528450:-_ENSG00000185565_ENST00000490035|hu_hu|FALSE|FALSE (ssRNA)
RNA: GGGAGUUCUACAGUCCGACGAUCCACACACGCACAGUGGAGAAAAUGAAAAUGGCACUUCCUAGCAUUUGCGGCAUGACUAGUGCUCUGGGGAGGGGGUGGAGGUGAGGAGAGGUGAGGGAGGAAAGGUGGGUGAAAAGGGAGCAACAGAGGAUUGAGCAUCA
B7: 69235922_69236042_4149_3pUTR_ENSG00000135679_ENST00000462284|human|control|control (ssRNA)
RNA: GGGAGUUCUACAGUCCGACGAUCUCCGUAGUCCUUUUUCUUGAAUUUGUUCAUUAUAAAUAUAGCUUGGCAUUUGUUUGAUCUUUUCAACUGUCUUCACUGCAUCAGUAGUUUUAUUCCAUAGUUCUUGCAGAUAUUUGACAGCAACAGAGGAUUGAGCAUCA
B8: chr11:20585787:20585788:-_ENSMUSG00000049659_ENSMUST00000146722|mus_mus|FALSE|FALSE (ssRNA)
RNA: GGGAGUUCUACAGUCCGACGAUCUCUUUUUUUAUUUCAAAAGUUUUUAAGAAGGACACCACCAGUGUAUUUCACAAAGACAUAAAUGUAUACACCCCAGCAACACAAAAGAAUAAAUCUUCAAAAAUGUUCAUCCCCAAUUAUCAACAGAGGAUUGAGCAUCA
B9: chr2:125499325:125499326:+_ENSMUSG00000091337_ENSMUST00000164756|mus_hu|FALSE|FALSE (ssRNA)
RNA: GGGAGUUCUACAGUCCGACGAUCGAGUUCUUCGGUCAGACGAUUGACAACCAUCAGUGAAAAAAGCUCUUCGAUAAAAGCUAACUGAUCAAACGGGGUCUUCUCAUAAUGCAUCUGAAACCCGCCAUCCAGGGCUGGUUCUCUCAACAGAGGAUUGAGCAUCA
B10: chrX:71549762:71549763:+_ENSMUSG00000019087_ENSMUST00000019231|mus_mus|mus_mus_mus_hu_False|8_78 (ssRNA)
RNA: GGGAGUUCUACAGUCCGACGAUCAAACCCGUGUACUUCUUAUUGUUAGCACAACAUUCCCCCCCAACGAUAACGACAGCCAAGCAGGACAGACAGUUAAGUAGUACUUCCACACUCCCAAACUCAGAGGAACCUCAAACCUUACAACAGAGGAUUGAGCAUCA
B11: chr7:26237324:26237325:-_ENSG00000122566_ENST00000356674|hu_hu|FALSE|FALSE (ssRNA)
RNA: GGGAGUUCUACAGUCCGACGAUCUUCGUAGUAGUUCCUCAAACUUUCUUCUGUGGUUUCAAAGCUUAAGCCACCAAUAAAGAGCUUACGGAACUGUUCCUUUUCUCUCUCCAUCGCGGACUCAGUCGCUUCAGCCCGAUUUCCCAACAGAGGAUUGAGCAUCA
B12: chr8:104444897:104444898:+_ENSG00000164934_ENST00000297579|hu_hu|FALSE|FALSE (ssRNA)
RNA: GGGAGUUCUACAGUCCGACGAUCUGCUGUAAAAAUGAAAGCUUCCAUAGGGUUCCAACAGAUUGUAUUUGUUCUCAUAUCUAAGAUAACCUUUUUCAAAGGAGUAGCUUGCCUCAUAUCGUACAGUACUAUAUUCCUGUCAGACAACAGAGGAUUGAGCAUCA
B13: chr10:89574256:89574257:-_ENSG00000138138_ENST00000328142|hu_hu|FALSE|FALSE (ssRNA)
RNA: GGGAGUUCUACAGUCCGACGAUCCUGAGCUUCUACUUUUUGCUUUCUGGUUGGAUCAAUUGCAUCUACCAUCCAUUUGAUAGUAAAGUAUGUCACUGCACCAAAUAUUGUCAAACGGAAAAUUAAACCAACAACUUCAUUCCGCAACAGAGGAUUGAGCAUCA
B14: 71194378_71194498_5973_3pUTR_ENSG00000006432_ENST00000554752|human|control|control (ssRNA)
RNA: GGGAGUUCUACAGUCCGACGAUCGGGGCCCAUCAGAGACCAGGUGUGUAGGAGCUGAGAGAUGGUAACUGUUCCUUCUUCAUGGAUGCUCACAGUAGCACCUUUGGAUAGCCCUGCUUUUGCUUCUUUCAGGUACAAUUAUUUCAACAGAGGAUUGAGCAUCA
B15: chr1:60041781:60041782:+_ENSMUSG00000041040_ENSMUST00000036540|mus_hu|mus_mus_mus_hu_False|18_98 (ssRNA)
RNA: GGGAGUUCUACAGUCCGACGAUCAAGUUUACAAUAGCUCAACUUUAGCAGUAGUGGCAAAUUUUCUUUUAUUUUCCUUCACAAAAGAAAAUCUUUAUAACCCAGUCCUAGUCUUGGCAGAGAAAGCAGCUAUAAAUUCUGACUCAACAGAGGAUUGAGCAUCA
B16: chr2:216981417:216981418:+_ENSG00000079246_ENST00000392132|hu_hu|hu_hu_hu_mus_True|38_98 (ssRNA)
RNA: GGGAGUUCUACAGUCCGACGAUCCUGAUACUGGUCCCCACCAGAAAGGGCAUUAUCAGUGCCAUCUGUGCCAUAGAGGACUAACGCAAUCUCAUCUUUGUUCUCAGAAAAUACCUGUCGUUGGACAAACAUAGUCAUCACUUUCAACAGAGGAUUGAGCAUCA
B17: chr6:86325054:86325055:-_ENSG00000135316_ENST00000355238|hu_hu|FALSE|FALSE (ssRNA)
RNA: GGGAGUUCUACAGUCCGACGAUCUCCACGCCCUCGACCUCUUGUUGGAGGGGGCAUAUGAGGUGGACCAUAAUAGUAGUAAUCGUCAUACAUUUGAUUUUUUGCUGCUUGCCUCUGAGCUUUUCUUUCUUUCCUUUUCUGAUCCAACAGAGGAUUGAGCAUCA
B18: chr5:145543945:145543946:-_ENSG00000133706_ENST00000545646|hu_hu|hu_hu_hu_mus_True|18_38 (ssRNA)
RNA: GGGAGUUCUACAGUCCGACGAUCCUGAACGGCCAGUGGUGGGAAAUAAUCAAGCCAGUGCUCUGCUUCAGAAAACUUCACUAUGUCGUCAUCAGAGAGGCCAAGGGAUUUCAUAAUGCCCCACUGGUACUUAGAAGAUCCUGCCAACAGAGGAUUGAGCAUCA
B19: chr3:10015032:10015033:+_ENSMUSG00000027533_ENSMUST00000029046|mus_mus|mus_mus_mus_hu_True|1_88 (ssRNA)
RNA: GGGAGUUCUACAGUCCGACGAUCGUUUUUACCAUCACAAGUGAUGAUACAGUCUGGCUUGGCCAUUGCGCCCAUUUUUCGCAAAGCUAUUCCCACUCCUAGCUCCUUCAUGUAUUCAUCAAAGCCUUUGCUGUCCAUCAGGCGCAACAGAGGAUUGAGCAUCA
B20: 63416140_63416260_867_3pUTR_ENSMUSG00000004319_ENSMUST00000093490|mouse|control|control (ssRNA)
RNA: GGGAGUUCUACAGUCCGACGAUCGACAUUUAUCCCUCUCUUCAAACGUUGUCUCAUUAGAGCCCCAACAACACUGUUCAUGGUUGUACCACAAUGCACUGAGGCAGAUGCCCUCCUUCAGGUCAGUCAUCCAGUCAGCAGCAACAACAGAGGAUUGAGCAUCA
B21: chr9:110451855:110451856:+_ENSMUSG00000044791_ENSMUST00000153838|mus_mus|FALSE|FALSE (ssRNA)
RNA: GGGAGUUCUACAGUCCGACGAUCAACUGGCAAAGACAUGAGUUUAUCAUGGUGUGGUGACAACAAAGGUUCCAUUUCCCUAAAUGGACUUUUUGACGUAUUAUGCUGCCUACAAGUAUCAUCUGAGUCCCUUUCUCUGCAUCUCAACAGAGGAUUGAGCAUCA
B22: chr7:54825262:54825263:-_ENSG00000132432_ENST00000352861|hu_hu|hu_hu_hu_mus_False|1_108 (ssRNA)
RNA: GGGAGUUCUACAGUCCGACGAUCCUGACUUGGCUCAUCCACAAACUGCAUUACCUGAUCCAUGUUUGUUGGAUGGCGGAUUGAGAGCGUAGAGACACGUAGCUCAGGAGAGAACCGAGCCCAACGGAACCGGAAGCGGAAUCCCAACAGAGGAUUGAGCAUCA

molecular target: T1, UNK ZnF1-3; test: nsRBNS (natural sequence RNA bind-n-seq); RBNS binding buffer (assumed for nsRBNS): 25 mM Tris pH 7.5, 150 mM KCl, 3 mM MgCl2, 0.01% Triton X-100, 500 ug/ml BSA, 20 U/ml SUPERase-In, 4 C; UNK is unkempt and MSI1 is Musashi-1; names of the RNAs are library labels; protein concentration not given here; high values mean tight binding

Binder	binding signal [enrichment R]
B1	1.11
B2	0.664
B3	1.12
B4	0.81
B5	0.476
B6	1.83
B7	0.68
B8	1.86
B9	0.792
B10	1.59
B11	0.432
B12	1.54
B13	0.86
B14	0.886
B15	0.837
B16	0.941
B17	0.504
B18	1.16
B19	0.729
B20	0.904
B21	1.28
B22	0.81
